Measured values reported in PubChem BioAssay AID1645887 (National Center for Advancing Translational Sciences (NCATS), 2021).
“And” between values parts separate entries of the source, which are not always exact repeats. Equal values may be shown once. The campaign covered roughly 16,000 compounds. About 40 (0.2%) were called active. Inconclusive results (about 1%) are left out. Calls come from the whole dose curve; as a rule, active = well fitted activation curve with a large enough effect; inconclusive = small, poorly fitted or top-dose-only effect, or another doubt; inactive = no such curve, though single readings can be large or run the other way. The list shows a part of the results.

Target: Rap guanine nucleotide exchange factor 4 (Homo sapiens) (UniProt Q8WZA2)
Assay: Validation qHTS for agonist of cAMP-regulated guanine nucleotide exchange factor 4 (EPAC2);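 for activation: exchange makes BODIPY-GDP fluorescence drop when released from Rap1B; series mostly up to about 150 µM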
Conditions: EPAC2 Rap1B BODIPY-GDP exchange, fluorescence; activation: stronger effect = higher value
Outline: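 Signal normalized against 6.5 mM cAMP as agonist control. Mix of EPAC2 (100 nM), RAP1B-BODIPY-GDP (250 nM) and GDP (50 uM) was read kinetically at 480/540 nm, every 5 min over 30 min, after 5 min room-temperature incubation with compound.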
% is set by controls: 0 for no effect and ±100 for the full control effect; potency is the fitted concentration of half-maximal effect.

Chain of UniProt Q8WZA2 (Q8WZA2 whole entry, looked up): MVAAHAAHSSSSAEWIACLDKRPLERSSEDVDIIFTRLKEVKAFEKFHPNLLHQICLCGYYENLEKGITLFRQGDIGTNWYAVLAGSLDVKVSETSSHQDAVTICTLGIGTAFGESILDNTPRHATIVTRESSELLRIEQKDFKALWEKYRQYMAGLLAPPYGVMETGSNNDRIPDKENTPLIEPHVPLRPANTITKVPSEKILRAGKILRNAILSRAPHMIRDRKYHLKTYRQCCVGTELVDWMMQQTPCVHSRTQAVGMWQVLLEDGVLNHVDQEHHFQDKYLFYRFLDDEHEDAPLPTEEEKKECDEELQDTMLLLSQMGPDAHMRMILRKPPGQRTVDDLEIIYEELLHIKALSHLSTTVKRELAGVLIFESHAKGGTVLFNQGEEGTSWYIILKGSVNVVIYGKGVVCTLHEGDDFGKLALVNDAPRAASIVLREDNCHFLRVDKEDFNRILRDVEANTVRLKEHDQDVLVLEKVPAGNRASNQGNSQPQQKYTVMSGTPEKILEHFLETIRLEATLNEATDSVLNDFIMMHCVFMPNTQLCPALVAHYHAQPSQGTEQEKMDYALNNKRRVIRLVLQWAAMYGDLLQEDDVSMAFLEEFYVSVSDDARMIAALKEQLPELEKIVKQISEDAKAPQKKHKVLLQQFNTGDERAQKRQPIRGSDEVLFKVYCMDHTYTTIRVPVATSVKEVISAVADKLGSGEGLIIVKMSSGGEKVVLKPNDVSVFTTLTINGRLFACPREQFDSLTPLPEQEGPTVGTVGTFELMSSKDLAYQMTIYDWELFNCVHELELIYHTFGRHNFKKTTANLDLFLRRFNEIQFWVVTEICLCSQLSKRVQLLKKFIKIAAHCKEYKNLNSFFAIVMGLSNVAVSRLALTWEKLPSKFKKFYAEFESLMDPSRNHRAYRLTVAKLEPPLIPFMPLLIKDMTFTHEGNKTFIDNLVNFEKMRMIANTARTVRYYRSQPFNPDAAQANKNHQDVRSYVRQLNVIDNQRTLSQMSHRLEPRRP

Row | SMILES | activation | Potency
1 | NS(=O)(=O)c1cc2c(cc1Cl)NC(C1CC3C=CC1C3)NS2(=O)=O (centres undefined) | inactive: -11% and inactive: -4.46% | 
2 | c1ccc2c(N3CCNCC3)nc(-c3ccc4c(c3)OCO4)nc2c1 | inactive: -9.61% | 
3 | CC(=O)CC(c1ccccc1)c1c(O)c2ccccc2oc1=O (centres undefined) | inactive: -19% and inactive: -17.2% | 
4 | C(=C\c1ccc2ccccc2n1)/c1ccc2ccccc2n1 | inactive: -21.2% | 
5 | CC(C)(C)c1ccc(C(=O)N2CCC3(CC2)CC3C(=O)NCCc2ccccn2)cc1 (centres undefined) | inactive: 7.29% | 
6 | CCNc1ncc2nc(-c3ccc(OC)cc3)c(=O)n(CCc3ccccc3)c2n1 | inactive: 6.79% | 
7 | O=C1CC(c2ccc(O)cc2)Oc2cc(O)cc(O)c21 (centres undefined) | inactive: -7.51% and inactive: 4.08% | 
8 | CN1CCN(c2ncc3nc(CCc4ccccc4)c(=O)n(CCC#N)c3n2)CC1 | inactive: -19.4% | 
9 | O=C(c1cnccn1)N1CCC2(CCCN(C(c3ccccc3)c3ccccc3)C2)CC1 | inactive: -40.9% | 
10 | CN(C)C(=O)c1ccc(-c2ccc3ncnc(Nc4ccc(F)cc4)c3c2)cc1 | inactive: -5.7% | 
11 | O=C(Nc1cccc(C(=O)Nc2ccc(S(=O)(=O)O)c3cc(S(=O)(=O)O)cc(S(=O)(=O)O)c23)c1)Nc1cccc(C(=O)Nc2ccc(S(=O)(=O)O)c3cc(S(=O)(=O)O)cc(S(=O)(=O)O)c23)c1 | inactive: -4.7% and inactive: 6.43% and inactive: -8.86% | 
12 | O=C(CN1C(=O)c2ccccc2C1=O)NCC1Cc2cccc(-c3ncccn3)c2O1 (centres undefined) | inactive: -11.7% | 
13 | CC(=O)OC1CC[C@]2(C)C(CC[C@@]3(C)C2C(=O)C=C2C4C(C)C(C)CC[C@@]4(C(=O)O)CCC23C)C1(C)C (some centres undefined) | inactive: -53.9% | 
14 | C[C@]12C=CC(=O)C=C1CCC1C2C(=O)C[C@]2(C)C1CC[C@]2(O)C(=O)CO (some centres undefined) | inactive: 2.09% | 
15 | Cc1ccnc2c(Cl)cccc12 | inactive: -24.9% | 
16 | Cn1nccc1C(=O)NCC1CCC2(CCN(Cc3c(O)ccc4ccccc34)CC2)O1 (centres undefined) | inactive: -3.38% | 
17 | COc1ccc2c(c1)OC(C)CN(CCNC(=O)c1cc3cc(F)ccc3[nH]1)C2 (centres undefined) | inactive: -6.86% | 
18 | COc1cccc2c1C(=O)c1c(O)c3c(c(O)c1C2=O)C[C@@](O)(C(C)=O)C[C@@H]3O[C@H]1C[C@H](N)[C@H](O)[C@H](C)O1 |  | active: 100 µM
19 | CCN1CCN(C(=O)N[C@@H](C(=O)N[C@@H]2C(=O)N3[C@@H]2SC(C)(C)[C@H]3C(=O)O)c2ccccc2)C(=O)C1=O | inactive: -20.1% | 
20 | CNC(=O)c1cc(Oc2ccc(NC(=O)Nc3ccc(Cl)c(C(F)(F)F)c3)cc2)ccn1 | inactive: 16.4% | 
21 | COc1ccc(C2CC(=O)c3c(O)cc(O[C@H]4OC(COC5OC(C)C(O)C(O)[C@@H]5O)C(O)C(O)C4O)cc3O2)cc1O (some centres undefined) | inactive: -13.3% | 
22 | C[C@@]12CCC(O)C[C@H]1CCc1ccccc12 (some centres undefined) | inactive: -5.37% | 
23 | CCNc1ncc2nc(-c3ccccc3)c(=O)n(Cc3cccs3)c2n1 | inactive: -11.1% | 
24 | Cc1ccc2[nH]c3c(c2c1)CN(C(=O)CC1(c2ccccc2)CC(=O)N(Cc2cccnc2)C1=O)CC3 (centres undefined) | inactive: 1.97% | 
25 | O=C(O)[C@H]1CN(C/C=C/P(=O)(O)O)CCN1 | inactive: -6.05% | 
26 | CNc1nc(-c2cccc(NS(C)(=O)=O)c2)nc2ccccc12 | inactive: -10.5% | 
27 | CC1(C)N=C(N)N=C(N)N1c1ccc(Cl)cc1 | inactive: 3.38% | 

Row | SMILES | activation | Potency
28 | N#Cc1cccc(-c2cncnc2NCc2cccnc2)c1 | inactive: 0.482% | 
29 | C[C@@H](NCCc1ccc(O)cc1)[C@@H](O)c1ccc(O)cc1 | inactive: -3.37% | 
30 | COCC1CCCN(Cc2ccc3c(c2)CN(C(=O)c2ccnn2C)CCO3)C1 (centres undefined) | inactive: -4.62% | 
31 | COc1ccc(NS(=O)(=O)c2ccc(I)cc2)cc1N1CCN(C)CC1 | inactive: -15% | 
32 | COc1ccc(-n2c(=O)c(-c3cccs3)nc3cnc(Nc4ccccc4)nc32)cc1 | inactive: -5.89% | 
33 | COc1ccc(C(=O)N2CCC3(CC2)CCN(c2ncccn2)CC3)cc1 | inactive: -17% | 
34 | CN1C(CCl)Nc2cc(Cl)c(S(N)(=O)=O)cc2S1(=O)=O (centres undefined) | inactive: 0.471% | 
35 | Brc1ccc2c(ccc[n+]2CCc2ccccc2)c1 | inactive: -22.7% | 
36 | Ic1ccc(N2CCN(Cc3c[nH]c4ncccc34)CC2)cc1 | inactive: 0.731% and inactive: -25.7% | 
37 | CCCN(CC)C(CC)C(=O)Nc1c(C)cccc1C (centres undefined) | inactive: -0.674% | 
38 | COc1cc(=O)n2c(c1C(=O)NCc1ccco1)CCN(Cc1cc3ccccc3[nH]1)CC2 | inactive: -4.5% | 
39 | OCc1ccccc1O[C@@H]1O[C@H](CO)[C@@H](O)[C@H](O)[C@H]1O | inactive: 5.72% | 
40 | CNc1nc(-c2ccccc2C(F)(F)F)nc2ccccc12 | inactive: -5.8% | 
41 | Cc1noc(C)c1C(=O)N1CCC[C@@]2(CCN(c3cccc(-c4ccccc4)c3)C2)C1 | inactive: -14.2% | 
42 | CS(=O)(=O)Nc1cccc(-c2cncnc2Nc2ccc(F)cc2)c1 | inactive: -16.6% | 
43 | FC(F)(F)c1ccccc1-c1cncnc1-n1ccnc1 | inactive: 6.36% | 
44 | C=C1CC[C@@H]2[C@](C)(CO)[C@H](O)CC[C@@]2(C)[C@@H]1C/C=C1/C(=O)OC[C@H]1O | inactive: -48.5% | 
45 | Cc1c(C(=O)N(CCO)C(C)C)cnn1-c1ncc2c(n1)-c1ccccc1CCC2 | inactive: -15.9% | 
46 | COc1ccc(-c2nc3cnc(N(C)C)nc3n(-c3ccccc3)c2=O)cc1 | inactive: 1.8% | 
47 | CCN(CC)CCN(C)c1ccc(/C=C/c2ccnc3ccccc23)cc1 | inactive: 0.0384% | 
48 | Cc1cn([C@H]2C=C[C@@H](CO)O2)c(=O)[nH]c1=O | inactive: -6.15% and inactive: 7.4% | 
49 | CS(=O)(=O)N1CCC2(CCCN(c3ccncc3)C2)CC1 | inactive: -7.01% | 
50 | CC(=O)N1CCC2(CCCN(c3ccccc3)C2)CC1 | inactive: -1.64% | 
51 | CC[C@H](C)[C@@H]1NC(=O)[C@H](Cc2ccc(O)cc2)NC(=O)[C@@H](N)CSSC[C@@H](C(=O)N2CCC[C@H]2C(=O)N[C@@H](CC(C)C)C(=O)NCC(N)=O)NC(=O)[C@H](CC(N)=O)NC(=O)[C@H](CCC(N)=O)NC1=O | inactive: -22% | 
52 | CC(=O)NS(=O)(=O)c1ccc(N)cc1 | inactive: -11% and inactive: -3.61% | 
53 | CCc1cccc(N(C)C(N)=Nc2cccc3ccccc23)c1 | inactive: -6.71% and inactive: -38.4% | 
54 | O=c1[nH]c2ccccc2n1CCCN1CCN(C(c2ccccc2)c2ccccc2)CC1 | inactive: 0.154% | 

Row | SMILES | activation | Potency
55 | Nc1nc(Cl)nc2c1ncn2[C@@H]1O[C@H](CO)[C@@H](O)[C@H]1O | inactive: 1.37% and inactive: -3.39% and inactive: -17.2% | 
56 | COc1ccc(NC(=O)N2CC3(CCN(C(=O)c4ccc(OC)cc4)CC3)C2)cc1 | inactive: -3.88% | 
57 | N#C[C@H](Cc1ccc(O)cc1)c1ccc(O)cc1 | inactive: -12.7% | 
58 | COc1cc(COc2cc(N)c(Cl)cc2C(=O)CCC2CCN(CCNS(C)(=O)=O)CC2)cc(OC)c1 | inactive: -2.12% and inactive: -6.11% | 
59 | FC(F)(F)c1ccccc1-c1nc(NC2CCNCC2)c2ccccc2n1 | inactive: -3.57% | 
60 | NC1(C(=O)O)C[C@@H](C(=O)O)[C@H](C(=O)O)C1 | inactive: -9.46% and inactive: -9.83% and inactive: -5.59% | 
61 | CC(C)[C@H](CO)Nc1nc(Nc2ccc(C(=O)O)c(Cl)c2)c2ncn(C(C)C)c2n1 | inactive: -14.8% | 
62 | CC(=O)N1CCC2(CCCN(c3ccccn3)C2)CC1 | inactive: -2.19% | 
63 | CCC[C@H](N[C@@H](C)C(=O)N1[C@@H]2CCCC[C@H]2C[C@H]1C(=O)O)C(=O)OCC | inactive: -11.1% | 
64 | COc1cccc(-c2cncnc2NCc2cnc(C)cn2)c1 | inactive: 1.05% | 
65 | COc1ccc(C(=O)c2ccccc2)c(O)c1O | inactive: -8.65% | 
66 | Nc1nc2ncc(CNc3ccc(C(=O)N[C@@H](CCC(=O)O)C(=O)O)cc3)nc2c(=O)[nH]1 | inactive: -12.7% and inactive: -16.6% | 
67 | COCC(=O)Nc1cc(C(=O)N2CCC(c3ccccc3)CC2)cc2nc(-c3ccccc3)n(C)c12 | inactive: 5.45% | 
68 | Cc1cccc(CNC(=O)c2c3n(c(C)cc2=O)-c2ccccc2SC(c2ccsc2)C3)n1 (centres undefined) | inactive: -6.43% | 
69 | COCCn1c(=O)cnc2cnc(Nc3ccccc3)nc21 | inactive: -1.9% | 
70 | CC(N)C(O)c1cccc(O)c1 (centres undefined) | inactive: -10.5% | 
71 | NO | inactive: -34.1% | 
72 | Cc1cc(C)c(S(=O)(=O)Nc2ccccc2C(F)(F)F)c(C)c1 | inactive: -4.13% | 
73 | COCCC1CCCCN1Cc1nc(N2CCCC2)c2cc(OC)c(OC)cc2n1 (centres undefined) | inactive: -11.9% | 
74 | CCCCCCc1c(C[C@H](N)C(=O)O)o[nH]c1=O | inactive: 0.124% and inactive: 0.533% | 
75 | CN(C)C(=O)c1ccc(-c2nc(N3CCOCC3)c3ccccc3n2)cc1 | inactive: -5.48% | 
76 | c1cc2c(cc1C1CCCCC1)c1c3n2CCN[C@H]3CCC1 | inactive: -1.43% | 
77 | O=C(c1n[nH]c2c1CCCC2)N1CCC(n2c(C3CCCO3)nc3ccccc32)CC1 (centres undefined) | inactive: -5.47% | 
78 | CCN(CC)CCNC(C(=O)OCCC(C)C)c1ccccc1 (centres undefined) | inactive: -13.1% | 
79 | C[C@@H]1C[C@H]2[C@@H]3CCC4=CC(=O)C=C[C@]4(C)[C@@]3(F)[C@@H](O)C[C@]2(C)[C@@]1(O)C(=O)COP(=O)(O)O | inactive: 5.26% | 
